Measured values from the supplement of paper PMC11417369.
The other results are listed elsewhere or left out.

These sequences were tested on PfSIP2 AP2 domain 1 (GST-tagged) (assay: gcPBM binding intensity (ln(normalized median fluorescence intensity)); higher = stronger DNA binding).
Method in brief: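 In this array assay, P. falciparum DNA-binding domains with a GST tag, expressed in E. coli, were applied for 1 h to primer-extended double-stranded 36-bp intergenic genomic probes and negative controls on an Agilent 4 × 180k array. Bound protein was visualised with Alexa488 anti-GST antibody at 488 nm. Binding intensity is the highest Masliner-normalised natural-log median intensity across replicate spots of either probe orientation.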

How did the “gcPBM binding intensity (ln)” value turn out when “TATTTTTATTTATAACGTACGAAAAATGTATATAAT [XGTACX_site703]” was run?
Its value is 7.53.

How did the “gcPBM binding intensity (ln)” value turn out when “GGTGTATGTTAAAGGAGTACATATATATATATATAT [XGTACX_site7727]” was run?
Its value is 9.25.

“CATACACATTTCATATGTACATAGATTGAAGGGAAG [XGTACX_site116]” was tested. Which “gcPBM binding intensity (ln)” value did it give?
The value was 7.21.

“TTTTATATATAATTCACACAAAAAAGATACATAAGA [CACACA_site5332]” was tested. Which “gcPBM binding intensity (ln)” value did it give?
The value was 7.15.

For “TAAGCAAAAATAATTACACACAAATTTATAAAAAAT [CACACA_site3377]”, which “gcPBM binding intensity (ln)” value is on record?
The value was 6.87.

With “ATAAAAATATAATTGAGTACATATGAATAGTCCTAT [XGTACX_site6281]” as the sequence, how does the “gcPBM binding intensity (ln)” value read?
The value was 7.04.

Which “gcPBM binding intensity (ln)” value does the source give for “ATTTTGTTTTTTTTTGCACACCATAAGGAGTGTAGG [CACACA_site1414]” here?
The value was 7.4.

Which “gcPBM binding intensity (ln)” value does the source give for “ACAACACATATTCATCGTACATGTATTAGGAAGACA [XGTACX_site1859]” here?
Its value is 7.1.

With “TATATAAAAATATGTTGTACGCATTTATAAATATAT [XGTACX_site3758]” as the sequence, how does the “gcPBM binding intensity (ln)” value read?
The value was 7.32.

How did the “gcPBM binding intensity (ln)” value turn out when “ATTTTTTTTTTTTTTTTTTTTTTTTTTGAATTCACA [CACACA_negctrl_site982]” was run?
The value was 6.82.

“AATAGTTCTTGAACGTGTACATAAAATATAATTTAC [XGTACX_site11]” was tested. Which “gcPBM binding intensity (ln)” value did it give?
The value was 6.99.

How did the “gcPBM binding intensity (ln)” value turn out when TTCTATTTTTTAAAAGTGCATATTATAAATATATAT was run?
Its value is 9.04.

“GAATAATCCAAACACACACACACACCCGAATAAATA [CACACA_site482]” was tested. Which “gcPBM binding intensity (ln)” value did it give?
The value was 7.03.

With “GAAATCTAAATAGAAACACACATATATAAATAAATA [CACACA_site7762]” as the sequence, how does the “gcPBM binding intensity (ln)” value read?
The value was 6.78.

For “TAGTATTTATATGTTATATATATAAAATAATACAGT [XGTACX_negctrl_site571]”, which “gcPBM binding intensity (ln)” value is on record?
The value was 7.11.

How did the “gcPBM binding intensity (ln)” value turn out when “ATATCTAATAAAAATACACACACATATGATTTGTGA [CACACA_site8558]” was run?
The value was 6.72.

How did the “gcPBM binding intensity (ln)” value turn out when “TATATAGAATTATATGCATGTTCAAAAAAATACAAC [TGCATGCA_site431]” was run?
Its value is 7.3.

For “ATATAAATATATATATGTACATAATATATTATGTTT [XGTACX_site2806]”, which “gcPBM binding intensity (ln)” value is on record?
The value was 7.18.

For “AATTTAACCACTAAAAGTACACACATATATACATAT [XGTACX_site8352]”, which “gcPBM binding intensity (ln)” value is on record?
The value was 7.19.

Which “gcPBM binding intensity (ln)” value does the source give for “GGACACCTTCAAAACACACATACAAATAAATAGAAA [CACACA_site3305]” here?
Its value is 7.22.

For “AGGATAATATACAAAAGTACATAAAACTAAAAAAAC [XGTACX_site605]”, which “gcPBM binding intensity (ln)” value is on record?
The value was 7.23.

For “AACATATATTTTGAAACACACACATATATAATATAC [CACACA_site8301]”, which “gcPBM binding intensity (ln)” value is on record?
The value was 7.11.

Which “gcPBM binding intensity (ln)” value does the source give for “AAAGAAAGAAAGAATACACACACACCGATATATATA [CACACA_site9246]” here?
Its value is 7.52.

With “AATGTGTATATATATACACACACATATATATATTTT [CACACA_site8596]” as the sequence, how does the “gcPBM binding intensity (ln)” value read?
The value was 7.04.

For “TCCTTTTTACTACTAGTGCATTATTTACAAGGTCCG [GTGCAC_site9441]”, which “gcPBM binding intensity (ln)” value is on record?
The value was 9.21.

How did the “gcPBM binding intensity (ln)” value turn out when “ATATATATAAAATATTATATTAAAAAAAATAAAATA [GTGCAC_negctrl_site87]” was run?
The value was 7.06.

With “TAGTTTTTTATATATTGTACTTAGAATATATTATAT [XGTACX_site3662]” as the sequence, how does the “gcPBM binding intensity (ln)” value read?
The value was 6.94.

For ACAAAGTTATAATTCTTGCACTTTAAGGTTCATTTA, which “gcPBM binding intensity (ln)” value is on record?
Its value is 7.2.

With “CGTGAATATATGATATGTACTTATAAAAATTTGTGC [XGTACX_site5480]” as the sequence, how does the “gcPBM binding intensity (ln)” value read?
The value was 7.21.

With “ATAAATATCTAGGGTTCACACATTATATATCTGTAT [CACACA_site5702]” as the sequence, how does the “gcPBM binding intensity (ln)” value read?
Its value is 6.77.

“GGTATACACAAGTATACACACATATATATATATATA [CACACA_site9063]” was tested. Which “gcPBM binding intensity (ln)” value did it give?
Its value is 9.58.

For “TTTTCCTCTTAAAATATACACACTGATTTAAGAAAA [CACACA_site3301]”, which “gcPBM binding intensity (ln)” value is on record?
Its value is 7.05.

Which “gcPBM binding intensity (ln)” value does the source give for “TTTTTTTTTTTTTTTTTTTTTTTTTTGTTCAGGCCT [GTGCAC_negctrl_site143]” here?
The value was 6.78.

For “ACGTAATAAAATAGTTGTACAACTTTTTATAATATA [XGTACX_site4393]”, which “gcPBM binding intensity (ln)” value is on record?
Its value is 7.53.

Which “gcPBM binding intensity (ln)” value does the source give for “TCATAAATATGAAAAAGTACAAAGGTAGATTTTGAA [XGTACX_site4535]” here?
The value was 6.82.

“TATATATATATTATATGTACGTATGTATGTATATAT [XGTACX_site6451]” was tested. Which “gcPBM binding intensity (ln)” value did it give?
Its value is 8.3.

“AAACGATTAATGTGTACACACATAGTTATAAACCTA [CACACA_site2110]” was tested. Which “gcPBM binding intensity (ln)” value did it give?
The value was 7.41.

With “TTTTTCTTTTTTTCTTTTTTTATAAAACTTAATTGT [CACACA_negctrl_site384]” as the sequence, how does the “gcPBM binding intensity (ln)” value read?
Its value is 6.74.

“AAAAAAAAAAAAAAATATATATATATATACATACAT [CACACA_negctrl_site317]” was tested. Which “gcPBM binding intensity (ln)” value did it give?
Its value is 7.53.

“TATTAATTATATTTATGTACATAATCATATTATTAT [XGTACX_site7938]” was tested. Which “gcPBM binding intensity (ln)” value did it give?
The value was 6.88.

How did the “gcPBM binding intensity (ln)” value turn out when “TTCATTTTTTGCTTTCAACACACATACAATATATAT [CACACA_site9369]” was run?
The value was 7.26.

“AGTAACAAAAGAAAAAAATATGCAAACATATATATA [XGTACX_negctrl_site468]” was tested. Which “gcPBM binding intensity (ln)” value did it give?
The value was 6.99.

With “AGAAATATATATATATATATATATATATATATATAT [TGCATGCA_negctrl_site375]” as the sequence, how does the “gcPBM binding intensity (ln)” value read?
The value was 9.39.

Which “gcPBM binding intensity (ln)” value does the source give for “TTTACAACATCAAAATGTACGCATTATTATTATTAA [XGTACX_site3017]” here?
Its value is 6.87.

For “AAAAAAAAAAAACACACACACACACCCACCCATACA [CACACA_site2859]”, which “gcPBM binding intensity (ln)” value is on record?
The value was 7.08.

How did the “gcPBM binding intensity (ln)” value turn out when “TATTTAAAAAATAATACACACATAATATAACAAAAT [CACACA_site3174]” was run?
Its value is 7.19.

For “TGTGTATAAATATACACACACATATAAATATTTTAA [CACACA_site7005]”, which “gcPBM binding intensity (ln)” value is on record?
The value was 6.79.

Which “gcPBM binding intensity (ln)” value does the source give for “ACATATAATATAAATTGTACATATAAATATATTATT [XGTACX_site4268]” here?
The value was 7.02.

For “TCATATATTTTATACATACACACATATATATATTTT [CACACA_site3941]”, which “gcPBM binding intensity (ln)” value is on record?
Its value is 7.15.

For “ACGTTATACACAGTACGTACATAACTATCTAAATGT [XGTACX_site5068]”, which “gcPBM binding intensity (ln)” value is on record?
The value was 7.18.

How did the “gcPBM binding intensity (ln)” value turn out when “TGGAGGTCAGTTCACAGTACCCAGGAAATCTGCGGA [XGTACX_site2556]” was run?
Its value is 6.18.

For “ATGCATAATATACTCTTACACACCATTTCTATATAC [CACACA_site1461]”, which “gcPBM binding intensity (ln)” value is on record?
The value was 7.07.

For “TATAACATAGGACACACACACATACATACACAAAAA [CACACA_site5062]”, which “gcPBM binding intensity (ln)” value is on record?
Its value is 7.39.

Which “gcPBM binding intensity (ln)” value does the source give for “CGAACACAAACACAAACACACATCATATATATATAT [CACACA_site4857]” here?
The value was 9.34.

With “ATTTTGGAAATAATATGTACATATACATAATATATA [XGTACX_site4177]” as the sequence, how does the “gcPBM binding intensity (ln)” value read?
Its value is 6.86.

“AATATACAAAAAAAAAAAAAAAAAAAAAAGATGGAA [TGCATGCA_negctrl_site550]” was tested. Which “gcPBM binding intensity (ln)” value did it give?
Its value is 6.92.

Which “gcPBM binding intensity (ln)” value does the source give for “TTTATTATATTTTTTTGTACATATTGATGTATATAA [XGTACX_site6527]” here?
Its value is 7.04.
